# Data: paper PMC4336329 (PLoS ONE, 2015)
# Among all 310,000 compounds or so, about 2,200 (0.71%) showed an effect of 50% or more. Effects have a minus sign here. Some of the results follow.
# Target: human ether-à-go-go-related gene (hERG) potassium channel (human, UniProt Q12809)
# Experiment: primary screen, population patch clamp on CHO cells stably expressing hERG
# Sequence of human ether-à-go-go-related gene (hERG) potassium channel (Q12809 whole entry, looked up): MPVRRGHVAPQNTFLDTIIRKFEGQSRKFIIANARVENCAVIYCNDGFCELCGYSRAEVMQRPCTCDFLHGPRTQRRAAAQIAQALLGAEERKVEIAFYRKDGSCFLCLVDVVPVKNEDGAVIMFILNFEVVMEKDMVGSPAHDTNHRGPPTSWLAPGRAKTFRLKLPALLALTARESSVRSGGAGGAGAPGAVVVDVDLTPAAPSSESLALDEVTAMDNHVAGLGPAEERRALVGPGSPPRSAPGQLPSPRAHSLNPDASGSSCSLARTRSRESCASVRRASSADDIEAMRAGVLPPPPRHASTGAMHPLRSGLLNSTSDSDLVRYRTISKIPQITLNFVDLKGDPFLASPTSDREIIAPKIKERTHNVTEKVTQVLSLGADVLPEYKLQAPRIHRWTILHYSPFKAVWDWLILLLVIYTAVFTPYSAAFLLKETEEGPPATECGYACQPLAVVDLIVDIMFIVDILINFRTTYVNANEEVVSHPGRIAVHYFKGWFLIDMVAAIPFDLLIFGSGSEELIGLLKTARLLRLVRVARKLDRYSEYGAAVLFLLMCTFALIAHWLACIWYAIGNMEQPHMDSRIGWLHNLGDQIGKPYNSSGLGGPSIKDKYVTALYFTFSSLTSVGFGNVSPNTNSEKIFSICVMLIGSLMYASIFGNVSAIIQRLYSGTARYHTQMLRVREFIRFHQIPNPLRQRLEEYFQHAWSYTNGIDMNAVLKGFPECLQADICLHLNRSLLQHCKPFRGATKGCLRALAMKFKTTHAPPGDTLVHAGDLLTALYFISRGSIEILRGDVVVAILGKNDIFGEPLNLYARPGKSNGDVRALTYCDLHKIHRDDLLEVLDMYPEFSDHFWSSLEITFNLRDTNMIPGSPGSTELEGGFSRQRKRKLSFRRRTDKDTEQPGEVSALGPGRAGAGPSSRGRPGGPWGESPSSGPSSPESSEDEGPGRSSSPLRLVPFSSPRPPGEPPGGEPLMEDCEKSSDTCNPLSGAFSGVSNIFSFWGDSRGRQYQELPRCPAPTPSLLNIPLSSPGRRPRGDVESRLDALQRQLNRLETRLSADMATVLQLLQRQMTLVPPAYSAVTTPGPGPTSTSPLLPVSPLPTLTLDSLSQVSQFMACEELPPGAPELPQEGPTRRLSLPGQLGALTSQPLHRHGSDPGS
row,SMILES,"hERG current change (%, negative = inhibition) at 1uM"
1,COc1ccc(C(=O)O)cc1S(=O)(=O)N(CCc1ccccc1)Cc1ccccc1,6.14%
2,O=C(Nc1ccccc1N1CCN(C(=O)c2ccccc2)CC1)c1ccc2c(c1)OCO2,-10.6%
3,CN1/C(=C/C=N/n2cnnc2)C(C)(C)c2ccccc21,7.04%
4,CCN(CC(=O)Nc1ccc(NC(C)=O)cc1)C(=O)/C=C/c1ccc(C)o1,1.55%
5,COc1ccccc1CCC(=O)N(C)CC(=O)Nc1ccc(Cl)c(C(F)(F)F)c1,11.5%
6,O=[N+]([O-])c1ccc(Oc2ccc(F)cc2)c2ccncc12,3.76%
7,COC(=O)c1c(NC(=O)CSc2ncn[nH]2)sc(C)c1C,11.2%
8,Nc1[nH]ncc1S(=O)(=O)c1ccccc1,10.2%
9,CC(/C=C1\SC(=S)N(NC(=O)c2ccncc2)C1=O)=C\c1ccccc1,16.1%
10,O=C1NCCCC1C(=O)N/N=C/c1ccc(Cl)cc1 (stereo not shown),-0.193%
11,Cc1ccc(C(C(=O)NCCc2ccccc2)N(C(=O)c2csnn2)C2CC2)o1 (stereo not shown),-2.18%
12,COc1ccc(CCNC(=O)Cc2cc(OC)c(OC)cc2Br)cc1OC,5.04%
13,COC(=O)c1cccc(-n2c(CCC(=O)O)ccc2-c2cccs2)c1,13.3%
14,CCCCOC(=O)c1ccc(NC(=O)c2c(N)n(C)c(=O)[nH]c2=O)cc1,17.4%
15,Cc1ccccc1NC(=O)CSc1ccc(-c2ccc(-n3cccn3)cc2)nn1,9.55%
16,Cc1ccc(CN(CC(=O)NC(C)(C)C)C(=O)CNC(=O)c2cccs2)cc1,11.4%
17,O=C(CCc1ccccc1)NNC(=O)c1ccccc1Cl,15.4%
18,Nc1nc2c(nc(Br)n2[C@@H]2O[C@@H]3COP(=O)([O-])O[C@H]3[C@H]2O)c(=O)[nH]1.[Na+],3.85%
19,CCN(CC)c1ccc(/C=N/Nc2ccc(C)cc2)c(O)c1.Cl,14.8%
20,CCOC(=O)C1=C(C)NC2=C(C(=O)C(C(=O)OCC)C(c3ccco3)C2)C1c1ccccn1 (stereo not shown),1.39%
21,COC(=O)c1ccc(CNC(=O)c2ccc(OC)c(S(=O)(=O)NC3CCCC3)c2)cc1,6.45%
22,CCCCC(NC(=O)COc1cc2c(c3oc(=O)cc(C)c13)CCC(C)(C)O2)C(=O)O (stereo not shown),6.56%
23,Cc1cc2c(cc1S(=O)(=O)N(C)c1ccccc1)n(C)c(=O)n2C,6.81%
24,Cc1ccc(S(=O)(=O)N2CCN(c3nc4ccccc4nc3-n3nc(C)cc3C)CC2)cc1,9.31%
25,COc1ccc(NC(=O)c2c(C)cc(=O)oc2C)c(OC)c1,19.4%
26,CCc1ccc(NC(=O)C2=CC=CN3CCS(=O)(=O)N=C23)cc1,-4.43%
27,CC1CCc2c(sc3ncnc(N4CCOCC4)c23)C1 (stereo not shown),-0.0507%
28,CCOC(CCn1c(SCC(=O)Nc2cc(C)on2)nc2ccccc2c1=O)OCC,12.9%

row,SMILES,"hERG current change (%, negative = inhibition) at 1uM"
1,COc1ccc(C(=O)NCC(=O)NCc2cc(=O)n(C)c(=O)n2C)cc1,17%
2,COc1ccc(CNC(=O)C2CCC(=O)N2C(C)C)c(OC)c1 (stereo not shown),10.3%
3,O=C(CCn1c(=O)[nH]c2ccsc2c1=O)N(CCc1ccccc1)Cc1ccccc1,-7.33%
4,CCC(CO)n1cnnc1-c1ccncc1 (stereo not shown),20.4%
5,COc1ccc(OC)c(CCNC(=O)C(C)n2nc(C)c3c(C)n(-c4ccc(C)cc4)nc3c2=O)c1 (stereo not shown),-7.89%
6,S=C1NC[C@H](Cc2cccc3ccccc23)N1CC1CCCCC1,10.6%
7,Cc1nn(-c2ccccc2)nc1CNC(=O)C1CCC1,7.23%
8,O=S(=O)(c1cccs1)N1CN(C2CCCCC2)c2nc3ccccc3nc21,0.376%
9,Cc1ccc(SCc2nnc(N)s2)cc1,-10.5%
10,CC(=O)NCCOC(=O)Nc1ccncc1,7.72%
11,O=C1/C(=C/C=C/c2ccco2)SC(=S)N1NS(=O)(=O)c1ccccc1,12.1%
12,Cc1cc(C(=O)OCC(=O)N2CC(C)OC(C)C2)c(C)n1-c1ccccc1 (stereo not shown),6.27%
13,COC(=O)C1C(c2ccc(OC)cc2)NC(=O)NC1(O)C(F)(F)Cl (stereo not shown),7.6%
14,CC(=O)c1ccc(NC(=O)C2CCCN(S(=O)(=O)c3cccc4nonc34)C2)cc1 (stereo not shown),10.9%
15,c1ccc(-c2noc(CN3CCN(C(c4ccccc4)c4ccccc4)CC3)n2)cc1,2.9%
16,CC(=O)NCc1nc2ccccc2n1C(C)C,17.6%
17,Cc1cc([N+](=O)[O-])nn1CC(=O)NNC(=S)Nc1ccc(Cl)cc1,11.6%
18,CCc1nnc(SCC(=O)Nc2ccccc2Cl)nc1CC,8.7%
19,CC1CC(C)CN(C(=O)c2ccc(C(=O)c3ccccc3)cc2)C1 (stereo not shown),-1.23%
20,CCC(=O)OCCn1c(=O)c2cc3c(=O)n(CCOC(=O)CC)c(=O)c3cc2c1=O,-11.5%
21,S=C(NCCc1ccccc1)N1CCN(Cc2ccc(Cl)c(Cl)c2)CC1,7.79%
22,Cc1ccc(N2C(=O)CC(c3c[nH]c4ccccc34)C2=O)cc1 (stereo not shown),9.12%
23,CN1CC=C2C(C#N)=C(N)C(C#N)(C#N)C(CCc3ccccc3)C2C1 (stereo not shown),8.6%
24,CCOc1c(OC)cc(C2C(C#N)=C(N)Oc3n[nH]c(-c4ccncc4)c32)cc1OC (stereo not shown),1.53%
25,COc1cc(-c2noc(C)c2C#CC2(N)CCCCC2)cc(OC)c1OC,9.6%
26,CCOC(=O)c1ccc(NC(=O)c2nc[nH]c2C(=O)N[C@@H](C)C(=O)OC(C)(C)C)cc1,17.5%
27,O=C(Nc1cccc(C(=O)NC2CC2)c1)c1ccc(Cl)c(S(=O)(=O)N2CCOCC2)c1,6.55%
